Measured values published in PubChem BioAssay AID504832 (National Center for Advancing Translational Sciences (NCATS), 2011).
Out of some 310,000 compounds screened, about 18,000 (5.8%) were called active. The inconclusive results got no clear call from the source; some entries with a clear call stand among them for comparison. The call rests on the fitted dose curve; in most records, active means well fitted inhibition curve with a large enough effect; inconclusive means small, poorly fitted or top-dose-only effect, or another doubt; inactive means no such curve, though single readings can be large or run the other way. No potency is given beside an inconclusive call; the fits are too rough.

Test: Primary qHTS for delayed death inhibitors of the malarial parasite plastid, 48 hour incubation
Details: P. falciparum luciferase growth in erythrocytes; series mostly up to 28.7 µM; activity change, negative = inhibition: at the top concentration
In short: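 A one-generation exposure of luciferase-tagged malaria parasites in RPMI 1640/Albumax erythrocyte culture, 37 C and 5% CO2. Inhibition is inferred from decreased luminescence after adding detection reagent.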
On the % scale 0 is the no-effect control and ±100 the full control effect; potency means the concentration at half of the fitted maximal effect; tags describe the fitted curve by direction and shape.

Structure (SMILES) | Potency | activity change, negative = inhibition
CCC(CC)c1nnc(NC(=O)C2CCN(C(=O)c3ccco3)CC2)s1 | inconclusive [inhibitor, partial curve, poor fit] | –
CN(C)CCc1cc2c(c3c1ccc1ccccc13)OCO2 | inconclusive [inhibitor, full curve, poor fit] | –
O=C(Cc1ccccc1)N/N=C/c1cccn1-c1ccc([N+](=O)[O-])cc1 | inconclusive [inhibitor, single point] | –
COc1ccc(C(=O)CSc2nnc(CNc3ccc(C)cc3C)n2Cc2ccco2)cc1 | inconclusive [inhibitor, partial curve, poor fit] | –
Cc1[nH]nc(SCC(=O)N2CCCC2)c1[N+](=O)[O-] | – | inactive: 20.3%
CCOC(=O)C1CCN(S(=O)(=O)CCNC(=O)c2ccc(F)cc2)CC1 | inconclusive [inhibitor, single point] | –
Cc1cc(C)n(CC(=O)n2c(C)c(C)c3ccccc32)n1 | inconclusive [inhibitor, single point] | –
Cc1ccc(/C=N\NC(=O)COc2ccc(C)cc2[N+](=O)[O-])cc1 | inconclusive [inhibitor, single point] | –
Cc1ccc(S(=O)(=O)N(C)C)cc1NC(=O)c1c(-c2c(F)cccc2Cl)noc1C | active: 11.7 µM | –
Cc1ccccc1C(=O)Nc1c(C(=O)N(CCN(C)C)Cc2ccco2)oc2ccccc12 | inconclusive [inhibitor, single point] | –
Cc1ccc(OCCC(=O)OC(C)C(=O)NC2CC2)cc1 (centres undefined) | inconclusive [inhibitor, single point] | –
O=S(=O)(Nc1cc(Sc2ncn[nH]2)c(O)c2ccccc12)c1ccccc1 | inconclusive [inhibitor, partial curve] | –
COc1ccc(CC(NC(C)=O)C(=O)NC2CCN(S(=O)(=O)c3ccccc3)CC2)c(OC)c1 (centres undefined) | inconclusive [inhibitor, partial curve, poor fit] | –
COc1cccc(-c2nc(CS(=O)(=O)CC(=O)NCCCN3CCc4ccccc4C3)c(C)o2)c1 | inconclusive [inhibitor, partial curve] | –
CC(C)(C)c1ccc(CN(Cc2ccccc2)C(c2ccccn2)c2nnnn2C(C)(C)C)cc1 (centres undefined) | active: 1.65 µM | –
O=C1C2C3C=CC(C3)C2C(=O)N1/N=C/c1cc(Br)cc([N+](=O)[O-])c1O (centres undefined) | inconclusive [inhibitor, single point] | –
Cc1cc(Br)ccc1OCCCCNC(C)(C)C | inconclusive [inhibitor, single point] | –
O=C(c1ccc(N2CCCCS2(=O)=O)cc1)N1CCN(c2ccccc2F)CC1 | inconclusive [inhibitor, partial curve, poor fit] | –
CC(=O)CSc1nnc(CSc2ncccn2)n1C1CCCCC1 | inconclusive [inhibitor, partial curve, poor fit] | –
Cc1cc(=O)[nH]c(SCC(=O)NN(c2ccccc2)c2ccccc2)n1 | inconclusive [inhibitor, full curve, poor fit] | –
NC(=O)c1ccsc1NC(=O)CSc1nnc(C2CC2)n1Cc1ccccc1 | – | inactive: -10.2%
O=[N+]([O-])c1cccnc1Oc1ccc(F)cc1F | inconclusive [inhibitor, single point] | –

Structure (SMILES) | Potency | activity change, negative = inhibition
COc1cccc(NS(=O)(=O)c2ccc3[nH]cc(C(=O)NC4CC4)c(=O)c3c2)c1 | inconclusive [inhibitor, single point] | –
Cc1ccc(/C=N/NC(=O)c2cc3c(s2)CCCC3)o1 | active: 8.28 µM | –
COc1ccc(C(=O)Nc2ccc(S(=O)(=O)N3CCCC3)cc2)c(OC)c1 | inconclusive [inhibitor, full curve, poor fit] | –
CCOc1cc(NC(=O)c2ccco2)c(OCC)cc1NC(=O)c1ccco1 | inconclusive [inhibitor, full curve, poor fit] | –
Cc1c(NC(=O)c2cccc(NC(=O)Cc3ccc(F)cc3)c2)c(=O)n(-c2ccccc2)n1C | – | inactive: -19%
CCCc1[nH]n(-c2ccc([N+](=O)[O-])cc2)c(=O)c1C=NCCCn1ccnc1 | active: 13.1 µM | –
CC(C)(C)[C@H]1C=C(C(N)=O)O[C@@H](OCc2ccc(CO)cc2)C1 | – | inactive: 0%
CC1Oc2ccccc2C=C1/C=N/Nc1ccc(C(=O)O)cc1 (centres undefined) | – | inactive: -37.1%
C=CCNc1nc(NCC)nc(N2CCOCC2)n1 | – | inactive: 6.8%
COc1ccc(CN2CCC(C(=O)c3cccc(Cl)c3)CC2)cc1 | inconclusive [inhibitor, partial curve, poor fit] | –
COc1cc(CCC(=O)Nc2ccc(S(=O)(=O)N3CCCC3)cc2)cc(OC)c1OC | inconclusive [inhibitor, single point] | –
O=C1CC(c2cccc(Br)c2)C2=C(CCCC2=O)N1 (centres undefined) | – | inactive: 5.31%
CCCN1CCC(=O)N(CCSc2ccc(OC)cc2)CC1 | – | inactive: 54.5%
COc1ccc(C2CC(c3cccc(OC)c3)n3nc(N)nc3N2)cc1 (centres undefined) | inconclusive [inhibitor, single point] | –
CCSc1nc2sc3c(c2c(=O)[nH]1)CC(C)(C)OC3 | – | inactive: -4.53%
Cc1cc(Cl)c2oc(C(=O)NCC(C)(C)N3CCOCC3)c(C)c2c1 | inconclusive [inhibitor, single point] | –
COc1ccccc1N1CCN(C2CCN(C(=O)COc3cccc(C)c3)CC2)CC1 | inconclusive [inhibitor, partial curve] | –
CC1(C)CC(=O)C=C(c2cccc(O)c2)C1 | – | inactive: 40.3%
O=C(Nc1ccc(-c2nc3ccccc3s2)c(OC(=O)c2ccccc2)c1)c1ccccc1 | – | inactive: 135%
O=[N+]([O-])c1ccccc1S(=O)(=O)n1nnc2ccccc21 | – | inactive: 10.5%
C#Cc1ccc([C@@H]2C=C(C(=O)NC3CC3)O[C@H](OCCCCO)C2)cc1 | inconclusive [inhibitor, single point] | –
CN(C)CCCN(C(=O)c1ccc(S(=O)(=O)N2CCc3ccccc3C2)cc1)c1nc2c(F)cccc2s1 | inconclusive [inhibitor, single point] | –
